About 4,500 (2.2%) of roughly 200,000 compounds were called active. This list was built around the results that the source calls inconclusive (neither active nor inactive); the mix of calls is not that of the screen. The call rests on the fitted dose curve; in most records, active means well fitted inhibition curve with a large enough effect; inconclusive means small, poorly fitted or top-dose-only effect, or effect the other way; inactive means flat fitted curve, though single readings scatter. Potencies of inconclusive entries are doubtful fits and often do not repeat.
Each molecule was assayed against Cruzipain (Trypanosoma cruzi) (UniProt P25779) (assay: qHTS Assay for Promiscuous and Specific Inhibitors of Cruzain (without detergent)). Details: purified cruzain, Z-FR-AMC fluorescence, no detergent.
UniProt P25779, sequence (P25779 whole entry, looked up): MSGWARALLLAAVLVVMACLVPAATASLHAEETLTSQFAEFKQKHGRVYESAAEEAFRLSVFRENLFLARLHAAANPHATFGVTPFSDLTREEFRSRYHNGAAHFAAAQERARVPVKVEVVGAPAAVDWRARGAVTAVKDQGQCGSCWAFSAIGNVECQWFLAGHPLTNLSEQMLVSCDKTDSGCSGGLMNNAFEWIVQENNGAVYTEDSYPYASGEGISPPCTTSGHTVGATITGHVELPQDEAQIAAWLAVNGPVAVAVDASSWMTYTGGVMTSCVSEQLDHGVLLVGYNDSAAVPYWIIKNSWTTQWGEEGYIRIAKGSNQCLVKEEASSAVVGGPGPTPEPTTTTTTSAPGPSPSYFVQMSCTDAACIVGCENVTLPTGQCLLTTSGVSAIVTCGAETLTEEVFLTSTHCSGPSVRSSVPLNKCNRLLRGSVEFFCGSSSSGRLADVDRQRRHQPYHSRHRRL
How it was run: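 Detergent-free condition (0.00005% Triton X-100) in acetate buffer pH 5.5 with DTT. 1.5 nM enzyme and compound were pre-mixed 15 min, then 2 uM Z-FR-AMC substrate added; reaction progress from fluorescence change between first and third reads (60 s).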
Further: nearly all actives have a fitted effect of over 40% in size.
Potency means the concentration at half of the fitted maximal effect; tags describe the fitted curve by direction and shape.
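Wherever max response, negative = inhibition is given: plate controls were enzyme without inhibitor for no effect and buffer without enzyme for full effect.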

Compound	max response, negative = inhibition	Potency
COc1cc(OC)c(NC(=O)c2cn(C3CCCC3)c(=O)c3c2c2ccccc2n3C)cc1Cl	inactive: 4.33%	–
COc1ccc(N2CCN(S(=O)(=O)c3ccc(C4CCCCC4)cc3)CC2)cc1	inactive: 0.133%	–
CCc1nc(Sc2nnnn2-c2ccccc2)c2c3c(sc2n1)CCCC3	–	inconclusive: 31.6 µM [inhibitor, single point]
Nc1ccc(O)cc1	–	inconclusive: 31.6 µM [inhibitor, partial curve, poor fit]
COc1ccc(N2CCC(CNS(=O)(=O)c3cccc(C(F)(F)F)c3)C2)cc1 (stereo unspecified)	–	active: 25.1 µM
[O-]/C(=C(\C(=S)Nc1cccc2ccccc12)[n+]1ccccc1)c1ccc2c(c1)OCCO2	–	active: 12.6 µM
COc1cc(NC(=S)NC(=O)c2ccc(F)cc2)ccc1NC(=O)c1ccco1	–	inconclusive: 39.8 µM [inhibitor, single point]
COc1ccc(OC)c(NC(=O)Cn2cc(C(=O)c3ccccc3)c3ccccc32)c1	–	inconclusive: 39.8 µM [inhibitor, single point]
COc1cc(/C=N/N=C(/N)c2nonc2N)cc(Br)c1OCc1cccc(C)c1	inactive: -12.5%	–
C=C(Nc1ccc(OC)cc1)C(=O)OC	inactive: -14.8%	–
COc1ccc(Cl)cc1NC(=O)CSc1nc(=O)n(Cc2ccco2)c2c1CCC2	inactive: 12.2%	–
O=C(N/N=C\c1c(O)ccc2ccccc12)c1ccc(S(=O)(=O)N2CCCCC2)cc1	–	inconclusive: 39.8 µM [inhibitor, single point]
CCn1c2c(c(=O)n3ncc(C(=O)N4CCN(c5ccccc5)CC4)c13)CN(Cc1ccc(OC)cc1)CC2	–	inconclusive: 31.6 µM [activator, single point]
COc1ccc(OC)c(C2C(C(=O)Nc3ccc(C)cc3C)=C(C)Nc3c(C(=O)Nc4ccc(F)cc4)cnn32)c1 (stereo unspecified)	–	inconclusive: 10 µM [inhibitor, partial curve]
Cc1cc(=O)n(Cc2cccc(Cl)c2)c2c1c(C)nn2C	–	inconclusive: 39.8 µM [activator, single point]
CC(C)(C)NC(=O)[C@@H]1C[C@@H]2CCCC[C@@H]2CN1C[C@@H](O)[C@H](Cc1ccccc1)NC(=O)[C@H](CC(N)=O)NC(=O)c1ccc2ccccc2n1	–	inconclusive: 20 µM [activator, partial curve]
CC(C)c1noc(-c2ccccc2OCC(=O)Nc2ccc([N+](=O)[O-])cc2)n1	inactive: 11.3%	–
CCOc1ccc(Nc2nc3c(c(=O)[nH]2)CCCC3)cc1	–	inconclusive: 0.158 µM [inhibitor, single point]
COc1cccc(CNC(=O)N2CCc3c(sc4c3CCCC4)C2c2ccc(F)cc2)c1 (stereo unspecified)	–	active: 6.31 µM
CC(C)=C(C#N)c1nc2ccccc2s1	inactive: -4.75%	–
CC(C)c1ccc2[nH]c(O)c(N=NC(=O)c3cccc(S(=O)(=O)N4CCCCC4)c3)c2c1	–	active: 25.1 µM
O=C(CN(Cc1ccco1)C(=O)Cn1nnc(-c2cccs2)n1)NCc1ccccc1	inactive: -0.987%	–

Compound	max response, negative = inhibition	Potency
CCOc1ccccc1NC(=O)Cn1c(=O)n(CC(=O)NCc2ccccc2Cl)c(=O)c2sccc21	inactive: 1.1%	–
Cc1ccc2nc3c(cc(C#N)c(=O)n3-c3nnc(SCc4ccc(F)cc4)s3)c(=O)n2c1	inactive: 0.264%	–
CCCCCN(CCCCC)C(=O)C(CCC(=O)O)NC(=O)c1ccc(Cl)c(Cl)c1 (stereo unspecified)	–	inconclusive: 31.6 µM [activator, single point]
Cc1ccc(-c2nnn(CC(=O)Nc3ccc(S(=O)(=O)N4CCC(C)CC4)cc3)n2)cc1	–	active: 10 µM
O=C1OC(c2ccccc2)=NC12CC2c1ccc(Cl)cc1 (stereo unspecified)	inactive: -9.16%	–
CC(C)(C)c1ccc(C(=O)Nc2ccc(Cl)cc2)cc1	–	inconclusive: 39.8 µM [inhibitor, single point]
O=C(Nc1ccccc1)c1cnc(-c2ccccc2)nc1-c1ccccc1	–	inconclusive: 39.8 µM [inhibitor, single point]
CN1CCN(C(CNC(=O)C(=O)Nc2ccc(Cl)cc2)c2cccnc2)CC1 (stereo unspecified)	–	inconclusive: 31.6 µM [activator, single point]
Cc1ccc(C)c(N2CCN(C(=O)CCc3nnc4n(C)c(=O)c5ccccc5n34)CC2)c1	inactive: 10.9%	–
CCOCCCNC(=O)c1c[nH]c2ccc(S(=O)(=O)N(C)c3ccc(Cl)cc3F)cc2c1=O	–	inconclusive: 39.8 µM [activator, single point]
COCCn1nnnc1C(c1ccccn1)N1CCN(c2cc(Cl)ccc2C)CC1 (stereo unspecified)	–	inconclusive: 39.8 µM [activator, single point]
Cc1nn(CCO)c2nc(-c3cccs3)cc(C(F)(F)F)c12	–	inconclusive: 20 µM [activator, partial curve]
CC1=C(c2ccc(C(C)C)cc2)S(=O)(=O)N=C1N1CCN(c2ccccc2F)CC1	inactive: 10.2%	–
O=C(CSc1nc2ccccc2[nH]1)Nc1nc(-c2ccc(Br)cc2)cs1	–	inconclusive: 39.8 µM [inhibitor, single point]
Cc1ccccc1Nc1nn2c(=O)c3ccc(C(=O)NCC(C)c4ccccc4)cc3nc2s1 (stereo unspecified)	–	inconclusive: 15.8 µM [inhibitor, partial curve]
O=c1c2[nH]c3ccccc3c2ncn1CCC1=CCCCC1	–	inconclusive: 31.6 µM [inhibitor, single point]
CCOC(=O)c1sc(-c2ccccc2)cc1NC(=O)Nc1ccc([N+](=O)[O-])cc1	–	active: 10 µM
COc1ccc(NCc2cc3cc4c(cc3n(CC(=O)Nc3ccc(C)cc3C)c2=O)OCO4)cc1	–	inconclusive: 15.8 µM [inhibitor, partial curve, poor fit]
CCOc1c(Br)cc(C2C=C(C(=O)O)Nc3ncnn32)cc1OC (stereo unspecified)	inactive: 0.815%	–
CCOC(=O)c1c(C)oc2c1c(C(c1cccnc1)N1CCOCC1)c(O)c1ccccc12 (stereo unspecified)	–	inconclusive: 31.6 µM [activator, partial curve]
O=C(O)C(O)(c1ccc(-c2ccccc2)cc1)c1ccc(-c2ccccc2)cc1	inactive: 10.8%	–
COCCn1nnnc1C(c1ccccn1)N1CCN(c2cc(C)ccc2C)CC1 (stereo unspecified)	–	inconclusive: 39.8 µM [activator, single point]

Compound	max response, negative = inhibition	Potency
Cc1sc(NC(=S)NC(=O)C2CCCCC2)c(C(N)=O)c1C	–	inconclusive: 31.6 µM [inhibitor, single point]
O=C(CSc1nnc2ccccn12)Nc1cccc(-c2nc3ccccc3s2)c1	–	inconclusive: 31.6 µM [inhibitor, single point]
CCOC(=O)c1c(C)n(C)c2c(C)cc(O)c(OC(=O)CC)c12	–	inconclusive: 39.8 µM [inhibitor, single point]
CCCN(c1ccccc1F)S(=O)(=O)c1ccc2c(c1)C(C)(C)C(=O)N2C	–	inconclusive: 39.8 µM [activator, single point]
COc1ccc(-c2cc(CCCC(=O)NCCc3cc(OC)ccc3OC)no2)cc1	–	inconclusive: 39.8 µM [activator, single point]
Cc1ccc(NC(=O)CSc2nc3ccccc3c(=O)n2CCCC(=O)N2CCCC2)cc1	–	inconclusive: 31.6 µM [activator, single point]
C/C(=N\NC(=S)NCc1ccccc1)c1ccc2ccccc2c1	–	inconclusive: 25.1 µM [inhibitor, single point]
Cc1nn(-c2ccccc2)c2sc(C(=O)NNC(=O)COc3cccc4ccccc34)cc12	–	inconclusive: 39.8 µM [inhibitor, single point]
CCOC(=O)C1CCCN(S(=O)(=O)c2cc(-c3onc(C)c3C)ccc2OC)C1 (stereo unspecified)	–	inconclusive: 39.8 µM [activator, single point]
CCOc1ccc(CC(=O)Nc2c(C(N)=O)oc3ccc(Br)cc23)cc1OCC	–	inconclusive: 20 µM [activator, partial curve]
COc1ccc(S(=O)(=O)N(CC(=O)NCCSc2ccc(C)cc2)c2ccc(C)cc2)cc1	inactive: 0.0122%	–
COc1ccc(N2C(C(C)=O)=NN(c3ccccc3)C2c2cccs2)cc1 (stereo unspecified)	–	inconclusive: 39.8 µM [inhibitor, single point]
COc1ccccc1C(c1c(O)cc(C)n(Cc2ccco2)c1=O)N1CCCCC1 (stereo unspecified)	–	inconclusive: 25.1 µM [inhibitor, single point]
CCC(Oc1ccccc1F)C(=O)Nc1cc(-c2ccccc2)no1 (stereo unspecified)	inactive: -9.55%	–
COCC(=O)N1CCC2(CC1)CCN(c1ccc(-c3ccccc3)cc1)CC2	–	inconclusive: 39.8 µM [activator, single point]
Cc1ccc(OCCCC(=O)Nc2ccc(N3CCOCC3)cc2)cc1	inactive: -0.526%	–
Cc1ccc2[nH]c(=O)c(C(c3nnnn3C3CCCC3)N3CCCc4ccccc43)cc2c1 (stereo unspecified)	–	inconclusive: 31.6 µM [inhibitor, single point]
COc1ccc(/C=N/OC/C(O)=C(\C#N)c2nc3ccccc3[nH]2)cc1	inactive: -29%	–
O=C(CNC(=O)c1ccccc1)OCc1nc2ccccc2s1	–	active: 12.6 µM
O=C(CSCc1ccc(Cl)cc1)Nc1ccc(-c2nnc(-c3ccccc3)o2)cc1	–	inconclusive: 39.8 µM [inhibitor, single point]
COc1ccc(C2CC(c3ccc4ccccc4c3OC(C)=O)=NN2C(=O)/C=C/c2ccccc2)cc1 (stereo unspecified)	–	active: 7.94 µM
Cc1cc2cc(CN(Cc3cccs3)Cc3nnnn3CC3CCCO3)c(=O)[nH]c2cc1C (stereo unspecified)	–	inconclusive: 39.8 µM [activator, single point]
